According to the supplement of paper PMC8728848:
The other results are listed elsewhere or left out.

What was measured:
Assay in all cases: glycan array binding signal (z-score within array); higher = stronger binding
Conditions in all cases: glycan notation: IUPAC condensed, linker removed
[1] = biological target: Gal(b1-4)GlcNAc(b1-3)Gal(b1-4)GlcNAc(b1-3)[Gal(b1-4)GlcNAc(b1-3)Gal(b1-4)GlcNAc(b1-6)]GalNAc
How it was run: (§1)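 The binding signal is a Z-score computed within each array and averaged over linkers. Arrays of the same protein sequence at different concentrations or buffers were also averaged together. Data originate from 3228 arrays in the Consortium for Functional Glycomics database, kept only where the protein sequence was available.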

[2] = biological target: Gal(b1-4)GlcNAc(b1-3)Gal(b1-4)GlcNAc(b1-6)[Gal(b1-3)]GalNAc
How it was run: as §1

[3] = biological target: Gal(b1-4)GlcNAc(b1-3)Gal(b1-4)[Fuc(a1-3)]GlcNAc(b1-3)Gal(b1-4)[Fuc(a1-3)]GlcNAc
How it was run: as §1

[4] = biological target: Gal(b1-4)GlcNAc(b1-3)GalNAc
How it was run: as §1

[5] = biological target: Gal(b1-4)GlcNAc(b1-3)[Fuc(a1-3)GlcNAc(b1-6)]Gal(b1-4)Glc
How it was run: as §1

[6] = biological target: Gal(b1-4)GlcNAc(b1-3)[Gal(b1-4)GlcNAc(b1-6)]Gal(b1-4)GlcNAc
How it was run: as §1

[7] = biological target: Gal(b1-4)GlcNAc(b1-3)[GlcNAc(b1-6)]Gal(b1-4)GlcNAc
How it was run: as §1

[8] = biological target: Gal(b1-4)GlcNAc(b1-6)Gal(b1-4)GlcNAc
How it was run: as §1

[9] = biological target: Gal(b1-4)GlcNAc(b1-6)GalNAc
How it was run: as §1

[10] = biological target: Gal(b1-4)GlcNAc(b1-6)[Gal(b1-3)]GalNAc
How it was run: as §1

[11] = biological target: Gal(b1-4)GlcNAc(b1-6)[Gal(b1-4)GlcNAc(b1-3)]GalNAc
How it was run: as §1

[12] = biological target: Gal(b1-4)GlcNAc6P
How it was run: as §1

[13] = biological target: Gal(b1-6)Gal
How it was run: as §1

[14] = biological target: Gal3S(b1-3)GalNAc
How it was run: as §1

[15] = biological target: Gal3S(b1-3)GlcNAc
How it was run: as §1

[16] = biological target: Gal3S(b1-3)[Fuc(a1-4)]GlcNAc
How it was run: as §1

[17] = biological target: Gal3S(b1-4)Glc
How it was run: as §1

[18] = biological target: Gal3S(b1-4)Glc6S
How it was run: as §1

[19] = biological target: Gal3S(b1-4)GlcNAc
How it was run: as §1

[20] = biological target: Gal3S(b1-4)[Fuc(a1-3)]Glc6S
How it was run: as §1

[21] = biological target: Gal3S(b1-4)[Fuc(a1-3)]GlcNAc
How it was run: as §1

[22] = biological target: Gal3S(b1-4)[Fuc(a1-3)]GlcNAc6S
How it was run: as §1

[23] = biological target: Gal3S4S(b1-4)GlcNAc
How it was run: as §1

[24] = biological target: Gal3S6S(b1-4)GlcNAc
How it was run: as §1

[25] = biological target: Gal3S6S(b1-4)GlcNAc6S
How it was run: as §1

[26] = biological target: Gal4S(b1-4)GlcNAc
How it was run: as §1

[27] = biological target: Gal4S6S(b1-4)GlcNAc
How it was run: as §1

[28] = biological target: Gal6P(b1-4)GlcNAc
How it was run: as §1

[29] = biological target: Gal6S(b1-3)GlcNAc
How it was run: as §1

[30] = biological target: Gal6S(b1-3)GlcNAc6S
How it was run: as §1

[31] = biological target: Gal6S(b1-4)Glc
How it was run: as §1

[32] = biological target: Gal6S(b1-4)Glc6S
How it was run: as §1

[33] = biological target: Gal6S(b1-4)GlcNAc
How it was run: as §1

[34] = biological target: Gal6S(b1-4)GlcNAc6S
How it was run: as §1

[35] = biological target: GalNAc(a1-3)Gal
How it was run: as §1

[36] = biological target: GalNAc(a1-3)GalNAc
How it was run: as §1

[37] = biological target: GalNAc(a1-3)GalNAc(b1-3)Gal(a1-4)Gal(b1-4)Glc
How it was run: as §1

B1: SSP1 (Sclerotinia sclerotiorum), XP_001584968 (protein)
chain: MGSSHHHHHHSSGLVPRGSHMSLLTTELACTSAPDQVLHLFFQDGQNILEARSPDGGNVWTTQDTIIAKDGDYNGSSMTCYYVDKDANFDNQPSIHLLYMNKDKQLTEKVKRMKGDNPIWEDAKVPDEVRKGPEQYSKLTSGSFNQGTGWNPNGSQWAYFSASKDGKMGIVEIRRTPKDPWHTETILEEKWGDELPGTALACVIGNGKIRVFLQHHDYSIILYENQNNTWHDRGTFIPKDKVQATTPLACTMTKDGSVHLFYVSKSNKIIHCTDGKKEEELINFFPGSKLGATSVENKITLFFRNLNPVNEVGTLENENGSWKHGTTVIPA
glycan array binding signal (z-score) [1]: -0.003 | glycan array binding signal (z-score) [2]: 0.557 | glycan array binding signal (z-score) [3]: -0.435 | glycan array binding signal (z-score) [4]: -0.369 | glycan array binding signal (z-score) [5]: -0.131 | glycan array binding signal (z-score) [6]: -0.389 | glycan array binding signal (z-score) [7]: -0.737 | glycan array binding signal (z-score) [8]: -0.146 | glycan array binding signal (z-score) [9]: 0.221 | glycan array binding signal (z-score) [10]: -0.405 | glycan array binding signal (z-score) [11]: 0.072 | glycan array binding signal (z-score) [12]: -0.463 | glycan array binding signal (z-score) [13]: 0.623 | glycan array binding signal (z-score) [14]: -0.655 | glycan array binding signal (z-score) [15]: -0.512 | glycan array binding signal (z-score) [16]: -0.396 | glycan array binding signal (z-score) [17]: 1.38 | glycan array binding signal (z-score) [18]: 0.318 | glycan array binding signal (z-score) [19]: 0.243 | glycan array binding signal (z-score) [20]: 0.27 | glycan array binding signal (z-score) [21]: 0.403 | glycan array binding signal (z-score) [22]: 0.615 | glycan array binding signal (z-score) [23]: -0.405 | glycan array binding signal (z-score) [24]: -0.017 | glycan array binding signal (z-score) [25]: -0.049 | glycan array binding signal (z-score) [26]: -0.478 | glycan array binding signal (z-score) [27]: -0.291 | glycan array binding signal (z-score) [28]: -0.025 | glycan array binding signal (z-score) [29]: -0.223 | glycan array binding signal (z-score) [30]: -0.222 | glycan array binding signal (z-score) [31]: 0.043 | glycan array binding signal (z-score) [32]: 0.367 | glycan array binding signal (z-score) [33]: -0.097 | glycan array binding signal (z-score) [34]: -0.103 | glycan array binding signal (z-score) [35]: 0.422 | glycan array binding signal (z-score) [36]: -0.456 | glycan array binding signal (z-score) [37]: -0.179
